The target of assay [1] is T1, Flag-tagged EEPD1 (endonuclease/exonuclease/phosphatase family domain-containing 1), full length (UniProt Q7L9B9).
T1 sequence: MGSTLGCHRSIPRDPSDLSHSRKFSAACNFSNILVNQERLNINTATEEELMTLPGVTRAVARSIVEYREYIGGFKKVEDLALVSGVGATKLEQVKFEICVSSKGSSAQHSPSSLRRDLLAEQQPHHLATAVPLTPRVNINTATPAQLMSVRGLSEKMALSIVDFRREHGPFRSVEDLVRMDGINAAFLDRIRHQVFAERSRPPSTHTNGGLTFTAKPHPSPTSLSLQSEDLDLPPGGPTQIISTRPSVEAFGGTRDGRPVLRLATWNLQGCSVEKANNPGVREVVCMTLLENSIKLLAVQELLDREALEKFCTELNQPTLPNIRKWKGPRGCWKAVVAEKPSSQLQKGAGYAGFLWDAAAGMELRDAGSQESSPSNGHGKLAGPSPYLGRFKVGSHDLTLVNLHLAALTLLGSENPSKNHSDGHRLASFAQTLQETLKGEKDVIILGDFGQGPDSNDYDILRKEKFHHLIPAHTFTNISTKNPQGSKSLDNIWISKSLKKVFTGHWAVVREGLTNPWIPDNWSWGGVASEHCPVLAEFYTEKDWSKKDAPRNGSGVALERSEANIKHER
Nature of the assay: co-IP; HEK293T cells cotransfected with HA-FOXO3A and Flag-EEPD1; lysate in Pierce IP lysis buffer; anti-Flag Co-IP beads, 4°C, 12 h; washed with PBST; western blot with anti-Flag and anti-HA. Background: A western blot detects proteins with antibodies after separation by electrophoresis.

Chains of the proteins cited; added tags and fusions are not shown.
UniProt O43524: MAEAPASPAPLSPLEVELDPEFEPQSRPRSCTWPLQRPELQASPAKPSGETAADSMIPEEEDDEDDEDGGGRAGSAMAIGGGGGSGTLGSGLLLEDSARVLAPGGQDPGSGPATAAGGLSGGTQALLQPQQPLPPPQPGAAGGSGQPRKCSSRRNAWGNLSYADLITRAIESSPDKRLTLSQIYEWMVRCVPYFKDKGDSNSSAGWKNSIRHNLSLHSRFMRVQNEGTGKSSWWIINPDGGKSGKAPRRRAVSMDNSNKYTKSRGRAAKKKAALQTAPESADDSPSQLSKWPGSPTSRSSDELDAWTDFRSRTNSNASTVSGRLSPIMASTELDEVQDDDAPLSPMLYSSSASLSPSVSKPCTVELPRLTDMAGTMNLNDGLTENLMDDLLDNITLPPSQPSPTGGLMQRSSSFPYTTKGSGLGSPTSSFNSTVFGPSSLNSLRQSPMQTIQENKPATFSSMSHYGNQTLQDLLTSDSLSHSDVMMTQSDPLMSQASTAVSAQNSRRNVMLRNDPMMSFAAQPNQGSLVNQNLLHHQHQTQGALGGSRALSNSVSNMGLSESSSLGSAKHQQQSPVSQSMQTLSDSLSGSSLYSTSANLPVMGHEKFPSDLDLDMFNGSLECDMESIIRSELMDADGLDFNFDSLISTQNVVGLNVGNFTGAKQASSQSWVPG
UniProt D3ZBQ1: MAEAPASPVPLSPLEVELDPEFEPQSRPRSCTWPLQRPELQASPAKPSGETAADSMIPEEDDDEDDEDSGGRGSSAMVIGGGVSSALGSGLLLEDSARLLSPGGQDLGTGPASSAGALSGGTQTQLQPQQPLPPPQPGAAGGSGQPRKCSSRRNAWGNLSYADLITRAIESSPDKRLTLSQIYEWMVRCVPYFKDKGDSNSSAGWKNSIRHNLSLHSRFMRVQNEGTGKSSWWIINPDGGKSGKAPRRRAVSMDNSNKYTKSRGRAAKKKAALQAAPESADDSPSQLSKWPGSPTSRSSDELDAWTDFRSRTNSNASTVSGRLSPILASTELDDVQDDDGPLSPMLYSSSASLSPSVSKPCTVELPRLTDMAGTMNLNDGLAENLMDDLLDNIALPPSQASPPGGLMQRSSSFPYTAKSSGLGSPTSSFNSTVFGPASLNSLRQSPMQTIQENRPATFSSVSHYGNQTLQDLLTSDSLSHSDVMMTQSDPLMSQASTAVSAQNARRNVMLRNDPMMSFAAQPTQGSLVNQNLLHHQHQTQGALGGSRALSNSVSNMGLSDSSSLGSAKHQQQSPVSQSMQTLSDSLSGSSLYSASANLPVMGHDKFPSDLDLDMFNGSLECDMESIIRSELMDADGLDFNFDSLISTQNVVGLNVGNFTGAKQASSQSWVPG

The next assay has as its target HA-tagged FOXO3A (UniProt O43524). Put plainly: co-IP; HEK293T cells (the text says HEK293A for the deletion mutants) cotransfected with HA-FOXO3A and Flag-EEPD1 full length or deletion mutants; lysate in Pierce IP lysis buffer; anti-HA Co-IP beads, 4°C, 12 h; washed with PBST; western blot with anti-Flag and anti-HA.
Assay [2] has as its target FOXO3A, endogenous in neonatal rat cardiomyocytes (rat (endogenous in NRCMs)) (UniProt D3ZBQ1). Put plainly: proximity ligation; in situ PLA in fixed, permeabilised neonatal rat cardiomyocytes with anti-FOXO3A and anti-EEPD1 antibodies; confocal microscopy.

These are yes or no findings as the source states them, for the method shown. In cells and extracts the contact can be indirect. Some entries that bind do so weakly or less than the wild type. For some of these results: Sequences can lack the tags named with a protein.

Take “HA-tagged FOXO3A (from UniProt O43524 1-673)”: the binding result in assay [1] was “binds”.

B1: Flag-EEPD1 HhH domain deletion mutant (protein, UniProt Q7L9B9)
chain: MGSTLGCHRSIPRDPSDLSHSRKFSAACNFSNILVNQREYIGGFKKVEDLALVSGVGATKLEQVKFEICVSSKGSSAQHSPSSLRRDLLAEQQPHHLATAVPLTPRVNINTATPAQLMSVRGLSEKMALSIVDFRREHGPFRSVEDLVRMDGINAAFLDRIRHQVFAERSRPPSTHTNGGLTFTAKPHPSPTSLSLQSEDLDLPPGGPTQIISTRPSVEAFGGTRDGRPVLRLATWNLQGCSVEKANNPGVREVVCMTLLENSIKLLAVQELLDREALEKFCTELNQPTLPNIRKWKGPRGCWKAVVAEKPSSQLQKGAGYAGFLWDAAAGMELRDAGSQESSPSNGHGKLAGPSPYLGRFKVGSHDLTLVNLHLAALTLLGSENPSKNHSDGHRLASFAQTLQETLKGEKDVIILGDFGQGPDSNDYDILRKEKFHHLIPAHTFTNISTKNPQGSKSLDNIWISKSLKKVFTGHWAVVREGLTNPWIPDNWSWGGVASEHCPVLAEFYTEKDWSKKDAPRNGSGVALERSEANIKHER
Take B1: the binding entry with HA-tagged FOXO3A is “no binding”.

B2: Flag-tagged EEPD1 (endonuclease/exonuclease/phosphatase family domain-containing 1), full length (protein, UniProt Q7L9B9 1-569)
chain: MGSTLGCHRSIPRDPSDLSHSRKFSAACNFSNILVNQERLNINTATEEELMTLPGVTRAVARSIVEYREYIGGFKKVEDLALVSGVGATKLEQVKFEICVSSKGSSAQHSPSSLRRDLLAEQQPHHLATAVPLTPRVNINTATPAQLMSVRGLSEKMALSIVDFRREHGPFRSVEDLVRMDGINAAFLDRIRHQVFAERSRPPSTHTNGGLTFTAKPHPSPTSLSLQSEDLDLPPGGPTQIISTRPSVEAFGGTRDGRPVLRLATWNLQGCSVEKANNPGVREVVCMTLLENSIKLLAVQELLDREALEKFCTELNQPTLPNIRKWKGPRGCWKAVVAEKPSSQLQKGAGYAGFLWDAAAGMELRDAGSQESSPSNGHGKLAGPSPYLGRFKVGSHDLTLVNLHLAALTLLGSENPSKNHSDGHRLASFAQTLQETLKGEKDVIILGDFGQGPDSNDYDILRKEKFHHLIPAHTFTNISTKNPQGSKSLDNIWISKSLKKVFTGHWAVVREGLTNPWIPDNWSWGGVASEHCPVLAEFYTEKDWSKKDAPRNGSGVALERSEANIKHER
Consider B2, for which the binding result with HA-tagged FOXO3A is “binds”.

B3: Flag-EEPD1 region 2 deletion mutant (protein, UniProt Q7L9B9)
chain: MGSTLGCHRSIPRDPSDLSHSRKFSAACNFSNILVNQERLNINTATEEELMTLPGVTRAVARSIVEYREYIGGFKKVEDLALVSGVGATKLEQVKFEICVSSKGSSAQHSPSSLRRDLLAEQQPHHLATAVPLTPRVNINTATPAQLMSVRGLSEKMALSIVDFRREHGPFRSVEDLVRMDGINAAFLDRIRHQVFAERLQSEDLDLPPGGPTQIISTRPSVEAFGGTRDGRPVLRLATWNLQGCSVEKANNPGVREVVCMTLLENSIKLLAVQELLDREALEKFCTELNQPTLPNIRKWKGPRGCWKAVVAEKPSSQLQKGAGYAGFLWDAAAGMELRDAGSQESSPSNGHGKLAGPSPYLGRFKVGSHDLTLVNLHLAALTLLGSENPSKNHSDGHRLASFAQTLQETLKGEKDVIILGDFGQGPDSNDYDILRKEKFHHLIPAHTFTNISTKNPQGSKSLDNIWISKSLKKVFTGHWAVVREGLTNPWIPDNWSWGGVASEHCPVLAEFYTEKDWSKKDAPRNGSGVALERSEANIKHER
Consider B3, for which the binding result with HA-tagged FOXO3A is given as “no binding”.

B4: Flag-EEPD1 region 3 deletion mutant (domain or fragment, UniProt Q7L9B9 1-544)
chain: MGSTLGCHRSIPRDPSDLSHSRKFSAACNFSNILVNQERLNINTATEEELMTLPGVTRAVARSIVEYREYIGGFKKVEDLALVSGVGATKLEQVKFEICVSSKGSSAQHSPSSLRRDLLAEQQPHHLATAVPLTPRVNINTATPAQLMSVRGLSEKMALSIVDFRREHGPFRSVEDLVRMDGINAAFLDRIRHQVFAERSRPPSTHTNGGLTFTAKPHPSPTSLSLQSEDLDLPPGGPTQIISTRPSVEAFGGTRDGRPVLRLATWNLQGCSVEKANNPGVREVVCMTLLENSIKLLAVQELLDREALEKFCTELNQPTLPNIRKWKGPRGCWKAVVAEKPSSQLQKGAGYAGFLWDAAAGMELRDAGSQESSPSNGHGKLAGPSPYLGRFKVGSHDLTLVNLHLAALTLLGSENPSKNHSDGHRLASFAQTLQETLKGEKDVIILGDFGQGPDSNDYDILRKEKFHHLIPAHTFTNISTKNPQGSKSLDNIWISKSLKKVFTGHWAVVREGLTNPWIPDNWSWGGVASEHCPVLAEFYTEKDW
On to B4, for which, in the assay with HA-tagged FOXO3A, the binding entry is given as “binds”.

B5: Flag-EEPD1 region 1 deletion mutant (domain or fragment, UniProt Q7L9B9 21-569)
chain: SRKFSAACNFSNILVNQERLNINTATEEELMTLPGVTRAVARSIVEYREYIGGFKKVEDLALVSGVGATKLEQVKFEICVSSKGSSAQHSPSSLRRDLLAEQQPHHLATAVPLTPRVNINTATPAQLMSVRGLSEKMALSIVDFRREHGPFRSVEDLVRMDGINAAFLDRIRHQVFAERSRPPSTHTNGGLTFTAKPHPSPTSLSLQSEDLDLPPGGPTQIISTRPSVEAFGGTRDGRPVLRLATWNLQGCSVEKANNPGVREVVCMTLLENSIKLLAVQELLDREALEKFCTELNQPTLPNIRKWKGPRGCWKAVVAEKPSSQLQKGAGYAGFLWDAAAGMELRDAGSQESSPSNGHGKLAGPSPYLGRFKVGSHDLTLVNLHLAALTLLGSENPSKNHSDGHRLASFAQTLQETLKGEKDVIILGDFGQGPDSNDYDILRKEKFHHLIPAHTFTNISTKNPQGSKSLDNIWISKSLKKVFTGHWAVVREGLTNPWIPDNWSWGGVASEHCPVLAEFYTEKDWSKKDAPRNGSGVALERSEANIKHER
Take B5: in the assay with HA-tagged FOXO3A, the binding result is “binds”.

B6: EEPD1, endogenous in neonatal rat cardiomyocytes (protein, UniProt Q5XI74 1-569)
chain: MGSTLGCHRSIPRDPSDLSHSRKFSAACNFSNILVNQERLNINTATEEELMTLPGVTRAVARSIVEYREYIGGFKKVEDLALVSGVGATKLEQVKFEICVSSKGNSAQHSPSSLRRDLLAEQQPHHLATTVPLTPRVNINTATLAQLMSVRGLSEKMAVSIVDYRREHGPFRSVEDLVRMDGINAAFLDRIRHQVFAERSRPPSTHTNGGLTFTAKPHPSPTSLSLQSEDLDLPPGGPTQIISMRPSVEAFGGMRDGRPVFRLATWNLQGCSVEKANNPGVREVVCMTLLENSIKLLAVQELLDKEALEKFCTELNQPILPNIRKWKGPRGCWRSIVAEKPSSQLQKGPCYSGFLWDTAANVELRDIPGQESSPSNGHAKTVGPSPFLARFKVGSNDLTLVNLQLTALALPGVENSSKNHSDGHRLLNFALTLQETLKGEKDVVILGDFGQGPDSSDYDILRREKFHHLIPAHTFTNISTRNPQGSKSVDNIWISKSLKKVFTGHWAVVREGLTNPWIPDNWSWGGVASEHCPVLAELYMEKDWSKKEVPRNGNGVTLEPSEANVKHER
For B6, the binding result in assay [2] is “binds”.

These data come from paper PMC11659772.
